Here are results for two molecules from PubChem BioAssay (NCI).

Some test systems named below: HL-60(TB) leukemia; LOX IMVI melanoma; MALME-3M melanoma; NCI-H522 lung; OVCAR-4 ovarian; SF-268 CNS; SK-OV-3 ovarian; SNB-75 CNS; UACC-257 melanoma; OVCAR-3 ovarian.
Holding throughout (test): inhibition of tumour cell growth, NCI panel, 48 h

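These data come from cells grown in 96-well plates and exposed to compound for 48 hours at five concentrations. TGI denotes the concentration required for complete inhibition of growth.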 A number of entries come with more than one value. The other results are left out here. The source may hold further records. The tests behind the records often covered other concentration ranges, not given here; some values may only mark the edge of a range. *1 amine or outer side, *2 acyl side, *3 side chain or, on linkers, in order; H or OH if unused. Where a SMILES comes first, the peptide text is derived from it. [ ]: non-standard residue; d: D form. X3 = CC[C@H](C)[C@H](OC(=O)[C@@H](C)[C@@H](CC)N[*:1])C(=O)[*:2]; X4 = C[C@H](N[*:1])C(=O)C(C)(C)C(=O)[*:2]; NMeY = CN[C@@H](Cc1ccc(O)cc1)C(=O)O; NMeL = CN[C@@H](CC(C)C)C(=O)O; NMeV = CN[C@H](C(=O)O)C(C)C

In the case of `CC[C@H](C)[C@@H]1OC(=O)[C@@H](C)[C@@H](CC)NC(=O)[C@H](C)NC(=O)C(C)(C)C(=O)[C@H](C)NC(=O)[C@H](Cc2ccc(OC)cc2)N(C)C(=O)[C@H](C(C)C)N(C)C(=O)CNC(=O)[C@H](CC(C)C)N(C)C(=O)CNC1=O` (cyclo(A[X3]G[NMeL]G[NMeV][NMeY](Me)[X4])), the TGI in the test with HL-60(TB) leukemia was 1.31 µM and 26.5 nM; in the test with LOX IMVI melanoma, 1.06 µM and 47.7 nM; with MALME-3M melanoma, 4.77 µM and 344 nM; in the test with NCI-H522 lung, 694 nM and 39.2 nM; in the test on OVCAR-4 ovarian, 513 nM and 30.5 nM; in the test on SF-268 CNS, 6.72 µM and 638 nM. Also, the TGI in the test on SK-OV-3 ovarian is 2.36 µM and 143 nM; with SNB-75 CNS, 1.16 µM and < 22.4 nM; in the test with UACC-257 melanoma it was 6.61 µM and 271 nM.
On to `CSc1ncnc2c1CCN2`, for which the TGI is 8.94 µM and > 100 µM in the test with NCI-H522 lung; 9.26 µM and > 100 µM in the test on OVCAR-3 ovarian.
